From PubChem BioAssay AID1963576 (National Center for Advancing Translational Sciences (NCATS), 2024)
About 60 (0.1%) of roughly 46,000 compounds were called active. Inconclusive results (about 3%) are left out. Calls come from the whole dose curve; as a rule, active = well fitted inhibition curve with a large enough effect; inconclusive = small, poorly fitted or top-dose-only effect; inactive = no such curve, though single readings can be large or run the other way. Some of the results follow.

Experiment: Primary qHTS assay for Inhibitors of ovarian cancer metastasis using an organotypic tumor microenvironment (TME) model.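 For activity change, negative = inhibition: plate controls were DMSO wells for no effect and tomatine positive control wells for full effect.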 Note: nearly all actives have a fitted effect of over 65% in size.
Settings: SKOV3ip1-GFP adhesion/invasion on 3D omental model, fluorescence; series mostly up to 45.8 µM; activity change, negative = inhibition: at the top concentration
Procedure, shortened: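 Primary human omental fibroblast/mesothelial 3D culture pre-formed 48 h. SKOV3ip1-GFP cells added with compounds (0.36-46 umol/L), incubated 2 h RT/16 h 37 C, fixed; GFP cells quantified at 488/509 nm.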

Activity change, negative = inhibition, inactive:
Cc1ccc(C(C)C)c(OCCn2cc(C(=O)c3ccco3)c3ccccc32)c1 -14.9%
COc1ccccc1N1CCN(C(=O)c2oc3ccccc3c2NC(=O)C(C)Oc2ccccc2)CC1 (stereo not given) 7.82%
COc1ccc2c(c1)CC(C(=O)N1CCC(C(N)=O)CC1)CO2 (stereo not given) -2.87%
COc1ccc(CCNC(=O)c2cc(Sc3cccc(Cl)c3)nc3ccccc23)cc1OC 8.3%
COc1ccc2c(c1)NC(c1ccc(OCC(C)C)cc1)=NC(c1ccncc1)=N2 2.3%
CCN(CC)c1ccc(NS(=O)(=O)c2ccc3c(c2)CCCN3C(C)=O)c(C)c1 16.9%
COC(=O)c1cc2oc(C)cc2n1Cc1c(C)cc(C)cc1C -0.817%
CN1C(C(=O)Nc2ccc(OC(F)(F)F)cc2)=CC(c2ccc3c(c2)OCO3)=NS1(=O)=O -1.1%
COc1cc2c(=O)n(Cc3ccccc3)c(=O)n(CC(=O)Nc3cc(C(F)(F)F)ccc3Cl)c2cc1OC -5.63%
O=C(CSc1ncc2c(n1)-c1ccccc1N(Cc1ccc(F)cc1)S2(=O)=O)c1ccc(Br)cc1 -5.3%
Cc1ccc(NC(=O)C(=O)NCC(c2ccc3c(c2)OCO3)N2CCOCC2)c(C)c1 (stereo not given) 4.5%
Cc1ccc(OC(=O)c2snnc2C)cc1C 2.45%
CCOC(=O)c1c(C)oc2ncnc(NCCc3ccccc3)c12 -8.27%
CCc1ccc(N2CCn3c2nc2c3c(=O)n(Cc3cccc(C)c3)c(=O)n2C)cc1 -6.9%
CCc1ccc(Nc2cc(C)nc3nc(Cc4ccc(Cl)cc4)nn23)cc1 -5.74%
COc1ccc(OCC(=O)Nc2cc(-c3cccc(Cl)c3)nn2-c2ccccc2)cc1 -0.245%
Cc1cccc(NC(=O)CSc2nc3ccc(NC(=O)c4cccs4)cc3s2)c1 0.637%
CC(C)c1ccc(OCc2cc(=O)n3c4c(sc3n2)CCCC4)cc1 -1.23%
COc1ccc(-c2oc3ncn4nc(-c5ccc(Cl)cc5)nc4c3c2-c2ccc(OC)cc2)cc1 0.836%
COc1cc2c(cc1OC)C(c1ccc(Cl)cc1)N(c1ccc(C)c(F)c1)C(=O)C2 (stereo not given) 7.98%
CCN(CC)CCN(C(=O)c1ccco1)c1nc2c(C)cccc2s1 3.23%
N#Cc1ccc(C(=O)N2CCN(c3nc4ccc(F)cc4s3)CC2)cc1 16.9%
O=C(NC1CCCCC1)c1ccc2c(c1)sc1nc(-c3ccccc3)cn12 11%
COc1ccccc1NC(=O)CN(c1ccc(C(C)C)cc1)S(=O)(=O)c1c(C)noc1C -0.395%
O=C(Nc1cccc(C(F)(F)F)c1)c1cc(CN2CCOCC2)on1 -13.9%
COc1ccccc1S(=O)(=O)Cc1ccc(C(=O)NCc2ccc(Cl)cc2)o1 1.25%
Cc1ccc(N2CCN(S(=O)(=O)c3cccc4ccccc34)CC2)cc1Cl -13.8%
COc1ccc(-n2ncc3c(NC4CCCC4)ncnc32)cc1 -0.163%
CCN(CCCNC(=O)c1nn(-c2ccc(OC)cc2)c(=O)c2c1c1ccccc1n2C)c1ccccc1 3.5%
COC(=O)c1ccc(NC(=O)CCn2cnnn2)cc1 5.6%
O=C(Nc1ccccc1F)c1ccc2c(Cl)c3c(nc2c1)CCC3 -16.1%
CCCNc1ccc(-c2nc(-c3ccccn3)no2)cc1[N+](=O)[O-] -3.65%
CCCCNC(=O)c1ccc2c(c1)ncn2-c1cc(OC)ccc1OC -12.3%
CC(=O)c1c(C)oc2c1cc(NS(=O)(=O)c1ccc(Br)cc1)c1ccccc12 -0.0923%
COC(=O)c1ccc(NC(=O)c2nc(-c3ccc(Cl)cc3)n3c2CCCCC3)cc1 -17.1%
CCOC(=O)N1CCc2c(sc3c2c(=O)n(CCc2ccccc2)c(=O)n3CC(=O)Nc2ccc(C)cc2)C1 0.43%
O=C(CSc1nccn1-c1ccc(Cl)cc1)Nc1ccc(Cl)c(Cl)c1 1.23%
COc1cc(NC(=O)N2c3ccccc3Sc3ccccc32)cc(OC)c1 2.62%
CCC(C)NC(=O)Cn1c(=O)n(CCCCCC(=O)NCc2ccccc2Cl)c(=O)c2sccc21 (stereo not given) 8.79%
O=C1C(c2ccc(F)cc2)N(CCc2ccc(Cl)cc2)C(=O)CN1C1CCCCCC1 (stereo not given) -8.16%
CC(C)(C)CC(=O)NCC(c1ccc2c(c1)OCO2)N1CCN(c2ccccc2)CC1 (stereo not given) 1.13%
CCCOC(=O)c1c(NC(=O)C(C)Sc2nc(-c3ccccc3)cc(C(F)(F)F)n2)sc(C(=O)N(C)C)c1C (stereo not given) 12.4%
CCOC(=O)c1ccc(NC(=O)CSc2ccc3ccccc3n2)cc1 -1.57%
CCCN(CCC)CCCNC(=O)c1cc2c(-c3ccc(OC)c(OC)c3)nn(C)c2s1 10.8%
C=CCNC1=C2C[C@@H](C)C[C@H](OC)[C@@H](O)[C@@H](C)C=C(C)[C@H](OC(N)=O)[C@@H](OC)C=CC=C(C)C(=O)NC(=CC1=O)C2=O 11.5%
COc1cc(NC(=O)CCc2c(C)nn(-c3ccc4nnc(C)n4n3)c2C)cc(OC)c1OC -4.55%
CCOc1ccc(S(=O)(=O)c2c(C(=O)c3ccc(CC)cc3)cnc3ccc(C)cc23)cc1 1.27%
O=C1CC(c2nc(-c3ccc(Cl)cc3)no2)CN1c1ccc2c(c1)OCCO2 (stereo not given) -1.32%
Cc1csc(NC(=O)c2sc3nc4c(c(C(F)(F)F)c3c2N)CCC4)n1 19.1%
Cc1ccc(S(=O)(=O)n2nc(-c3ccccc3)nc2NCc2ccc(Cl)cc2)cc1 22.3%
COc1cc(OC)cc(C(=O)Nc2cc3c(cc2N2CCCC2)n(C)c(=O)c(=O)n3C)c1 0.732%
Cc1ccc(SCC(=O)Nc2ccc3oc(-c4ccccc4C)nc3c2)cc1 -6.7%
Cc1ccc(CNC(=O)c2cc(C)nc3c2c(C)nn3-c2ccc(C)cc2)cc1 0.363%
CCN(CC)CCCCNc1ncc2cc(-c3cc(OC)cc(OC)c3)c(NC(=O)NC(C)(C)C)nc2n1 -7.03%
CC(=O)c1ccc(NC(=O)c2cnn(-c3cccc(F)c3)c2-n2cccc2)cc1 1.11%
COc1ccc(NC(=O)CSc2nc(-c3ccc(F)cc3)[nH]c2-c2ccc(C)cc2)cc1OC -3.03%
COc1ccc(S(=O)(=O)c2c(O)c3ccc(C(=O)NCc4ccc(F)cc4)cc3[nH]c2=O)cc1 -8.29%
COc1cc(C2CC(=O)Nc3c2c(C)nn3-c2nncc(-c3ccc(C)cc3)n2)cc(OC)c1OC (stereo not given) 9.63%
Cc1ccc2c(CC(=O)Nc3c(C(=O)c4ccc(C)c(F)c4)oc4ccccc34)coc2c1 -11.3%
CCOc1ccc(NC(=O)c2cnc3ccccn3c2=O)cc1 -1.98%
O=S(=O)(c1ccc(Cl)cc1)c1nc(-c2ccco2)oc1SCc1ccc(F)cc1 5.94%
COc1ccccc1NC(=O)CCCc1nnc2n(C)c(=O)c3sccc3n12 9.71%
CCOC(=O)c1cc(S(=O)(=O)NCc2ccc(C)cc2)[nH]n1 9.55%
O=C(Nc1ccc(Oc2ccccc2)cc1)C1CCN(S(=O)(=O)c2ccc(Cl)cc2)CC1 -0.589%
COc1ccc(NC(=O)CN(c2cc(C)cc(C)c2)S(=O)(=O)c2c(C)noc2C)cc1Cl 7.77%
COc1ccccc1CNC(=O)CCC1N=C2c3ccccc3N=C(SCc3ccc(C)cc3C)N2C1=O (stereo not given) 2.29%
CC(C)(C)OC(=O)N1CCC(c2nnc(SCc3cccc(Cl)c3)o2)CC1 22%
Cc1ccc(CNC(=O)CN2C(=O)COc3ccc(S(=O)(=O)Nc4ccccc4)cc32)cc1 -4.44%
COc1ccc(NC(=O)CSc2ccc3nc(-c4ccccc4)cn3n2)cc1OC -15.1%
Cc1ccccc1Nc1c(-c2ccc(N3CCOCC3)cc2)nc2ccccn12 -6.12%
COc1ccc(-c2nc(SCC(=O)Nc3ccc4c(c3)OCCO4)c(-c3ccc(C)cc3)[nH]2)cc1OC -7.17%

outcome, inactive:
O=C(Cn1cccc1C(=O)c1ccccc1)NCc1ccc(F)cc1
CCCN1CCN(CCNC(=O)Nc2cc(OC)cc(OC)c2)CC1
COc1ccc(C2c3c(n(C)c4ccccc34)C(=O)N2CC(=O)Nc2ccc(Cl)cc2)cc1 (stereo not given)
CCOC(=O)c1ccc(CSc2nnc3cc(C)c4ccccc4n23)cc1
Cc1ccc(-n2nnnc2CNC(=O)c2cc(C(F)(F)F)cc(C(F)(F)F)c2)cc1C
COc1cccc(CNC(=O)COc2cc(=O)n(C)c3ccccc23)c1
COc1ccc(S(=O)(=O)Nc2ccc(-c3cn4c(C)csc4n3)cc2)cc1
Cc1c(Cl)cccc1-n1ncc(C(=O)Nc2ccc(Br)cc2F)c1C1CCNCC1
COc1ccccc1NC(=O)C1=C(C)Nc2nnnn2C1c1ccc(C(F)(F)F)cc1 (stereo not given)
CCc1cccc(NC(=O)CCNS(=O)(=O)c2cccc3nonc23)c1
O=C(NCc1cccc(Br)c1)c1cnn(-c2ccc(F)cc2)c1-n1cccc1
CC(=O)c1ccc(NC(=O)c2cc(-c3ccc(C)s3)nc3ccccc23)cc1
Cc1cccc(N2CCN(C(=O)CN3C(=O)CSc4c3c(C)nn4-c3ccccc3)CC2)c1C
CCOc1ccc(N2CC(NC(=O)c3cccs3)CC2=O)cc1 (stereo not given)
CCc1ccc(NC(=O)[C@H](Cc2ccccc2)N2Cc3ccccc3C2=O)cc1
O=C(CSc1nc2c([nH]c3ccccc32)c(=O)n1-c1ccccc1)N1CCc2ccccc21
COc1ccc(C2C(=O)N(C3CCCCCC3)CC(=O)N2Cc2ccc(C)cc2)cc1 (stereo not given)
COc1ccc(-n2c(=O)c3ccccc3n(CC(=O)Nc3ccccc3OC)c2=O)cc1
CSc1ccc(CCNC(=O)CCn2c(=O)c3cccn3c3ccc(F)cc32)cc1
CCOC(=O)c1c(NC(=O)c2cc3ccccc3c(=O)o2)sc2c1CCC(C)C2 (stereo not given)
CCOc1ccc(CCNC(=O)c2ccc3c(c2)c(C)c(C)n3Cc2ccccc2)cc1OCC
Fc1cccc(-n2ncc3c2ncn2nc(Cc4ccccc4)nc32)c1
Cc1ccc2nc3sc(C(=O)NCCCN(C)c4ccccc4)cc3cc2c1
CC(C)NC(=O)c1nn(-c2ccccc2F)nc1CO
